# From the supplement of paper PMC11417369
# ± gives the standard deviation of the averaged measurements. Some of the results follow.
# System: PfAP2-G AP2 domain (GST-tagged)
# Assay: gcPBM binding intensity (ln(normalized median fluorescence intensity)); higher = stronger DNA binding
# Method in brief: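 The binding buffer was 1× PBS containing 1% milk, 0.2 mg/ml BSA, 0.5% salmon testes DNA and 0.03% Triton X-100. In it, GST-tagged P. falciparum DNA-binding domains expressed in E. coli were applied for 1 h to an Agilent 4 × 180k array of primer-extended double-stranded 36-bp intergenic genomic probes plus negative controls. Binding intensity, read with Alexa488 anti-GST antibody and a 488 nm scan, is the highest Masliner-normalised natural-log median intensity across replicate spots of either probe orientation.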
row,Sequence,gcPBM binding intensity (ln)
1,AAAAGGAATGAAAATTCACACAACTATAAATACATA [CACACA_site5337],9.78 ± 0.14
2,GTTACACCAACAAACACACACACACCCACCCACAAA [CACACA_site2427],10.4 ± 0.29
3,AATATACACCCGTGTACACAAATATTTACAAAACGT [CACACA_site4786],11.7 ± 1.1
4,TTCTATTTGTAAAATTGTACAAAATAAATAACAAAA [XGTACX_site1007],10.8 ± 0.51
5,TAATAATAGTACTCACATCAAAGTATTATTAAAAAT [TGCATGCA_negctrl_site496],11.2 ± 0.98
6,GCATTTCTACTAAAAATACACACGATGATACAACGA [CACACA_site1756],10.1 ± 0.32
7,GGGAAGTAGTAGTAATGTACTTATTTATTATGTGAC [XGTACX_site3985],11.3 ± 0.83
8,TTATATATTTTTTGCACACCAAAAAAGAGAATATTC [CACACA_site2730],10.4 ± 0.42
9,CTTATTTCCTTTTGTAGTACCTTATAATATATATAA [XGTACX_site8873],11.3 ± 0.69
10,TATATATATATATGTTGTACATATTTAAATGTTTAT [XGTACX_site5437],11.3 ± 0.93
11,ATATATATATATATGTGTACATAATAACTTTGCTTA [XGTACX_site1255],11.5 ± 0.86
12,ACCTATTTCAAACACACACACACACTAGCAAACATA [CACACA_site4695],10.2 ± 0.27
13,TATAAATATAAATACACACACATATATATTATATAT [CACACA_site4496],9.875 ± 0.021
14,TAAAAAATGTTATATACACACAGTATAAAAAAAAAT [CACACA_site7808],9.955 ± 0.092
15,AATTAAATTATAAGCACACACATATATATATATATA [CACACA_site3351],10.1 ± 0.28
16,CCACGTATAATATGTACACACACATAAATACAAAAA [CACACA_site4660],11.4 ± 0.9
17,ACACATATGACAAATAGTACATAAATATATAAATAT [XGTACX_site7141],11.1 ± 0.88
18,TAAACAGATATATTTTGTACATATTGTATATTTTGT [XGTACX_site713],10.6 ± 0.28
19,AATATTCACATTTGTTGTACATTCCTAGTTATATAA [XGTACX_site491],11.2 ± 0.69
20,TAAATATATAATTGTAGTACTGTTTTATGTTCATAA [XGTACX_site1020],11.2 ± 0.47
21,AAAAAATTTCAAATAACACACACTAATATATATATG [CACACA_site1426],9.95 ± 0.11
22,ACAAAAAAGTAAAAAGTGCATGTAAAATATAAGTAT [GTGCAC_site9438],10.2 ± 0.028
23,CGAAAGAAAAAAAGCACACACAGTTTTGAGCAATGA [CACACA_site2109],9.935 ± 0.092

row,Sequence,gcPBM binding intensity (ln)
1,TTAATATATTATATTTGTACATATATATATATACAA [XGTACX_site4798],10.9 ± 0.62
2,AAATTGTGTTCATCAGCACACACAACATCATGTAAT [CACACA_site8556],10.1 ± 0.12
3,AATAAATCTTTTTGTTGTACTAAAAATATTATTAGC [XGTACX_site3335],11.3 ± 0.65
4,TTATGATGGTCTTTATAAGGGCACATTAAATTCGGC [TGCATGCA_negctrl_site166],10.6 ± 0.42
5,AAACTATTCACTATAATACATTAGAAGTGAATAAAA [TGCATGCA_negctrl_site498],9.66 ± 0.13
6,ATACATCAAGGACACACACACACACGCACACGCACA [CACACA_site6310],11 ± 0.6
7,TTTTTATAAAAAAATAGTACTCGTCTAATCTTATGT [XGTACX_site8532],11.3 ± 0.78
8,TATATATAAATATTCAGTACATAGTGCTATTAAGTG [XGTACX_site1979],10.8 ± 0.47
9,CCATTATATCTAAGTACACACATTAATTTTTTTTTT [CACACA_site6115],11.5 ± 0.98
10,AGAAATTAATCGAGGTGTACGTACATCCAAATATAT [XGTACX_site7650],11.8 ± 1.2
11,ATATATTTAACAAGATGTACAATTTTATAAAAAATA [XGTACX_site2351],11 ± 0.62
12,TGAAAAGGAAATTGTTGTACATATGTTTCTTCCTAA [XGTACX_site3932],11.2 ± 0.8
13,AATAGCAATTTGGGGTGTACACACACCTTATTTAAA [XGTACX_site2234],11.5 ± 0.95
14,AAAATATATATAAATGCATGCATAATGAAATATATA [TGCATGCA_site39],9.66 ± 0.14
15,TTTTAAAAAACAAACACACACGTAGAAAAAAAAAAA [CACACA_site4608],10.1 ± 0.24
16,CTGTATAAAACCAATGCATGTAAATATATTAATATA [TGCATGCA_site511],9.93 ± 0.042
17,GAAATTTTATTTCGGCGGACAAATGTATACTTTCTT [XGTACX_site4238],11.2 ± 0.73
18,GATTATTATGTCCATGCATGTTAATATATATTAATT [TGCATGCA_site837],10.6 ± 0.39
19,AAATTGGGGCTTGTTACACACTTAGTGCGAGTTCTA [CACACA_site582],10.3 ± 0.26
20,GAGAAGACATTACACAGTACCCAGTAACTCTACGGA [XGTACX_site2000],10.6 ± 0.32
21,TATGCGTATATATAAATACACACCAAATGTTAATAT [CACACA_site1713],10.2 ± 0.21
22,ATATATTATTATAACTGTACTTTTTTTGTGGTTAAT [XGTACX_site8266],11.5 ± 0.83
23,TATGGATGTATTCATACATGCACACGTACATATTTA [TGCATGCA_site991],11.3 ± 0.86

row,Sequence,gcPBM binding intensity (ln)
1,ATAATTTGATGGTTAACACACATATATATTATATAT [CACACA_site2449],10.2 ± 0.16
2,ATATAAATATAAATATATATGTATAAATATAAATAT [CACACA_negctrl_site247],9.565 ± 0.064
3,CCATTTACATTGTGAAGTACTAAAAAAAAATGTAGA [XGTACX_site7882],11.1 ± 0.61
4,ACAAGGAATATAAAAAGTACATAAAATACATAAAAA [XGTACX_site1217],11.3 ± 0.64
5,ATTTATTTTAATAATTGTACATGTTATTTTATATAT [XGTACX_site2667],10.9 ± 0.57
6,TACTTTTCATCTTCTTAACACACAAAAAAAAAAAAA [CACACA_site9290],10.1 ± 0.52
7,TATATATATATATATACACACAAAAAAATAAATTCT [CACACA_site98],10.1 ± 0.32
8,ATCATTTTTAAAGGAACACACAAAAAAAGTTATAAT [CACACA_site6761],10.17 ± 0.099
9,TTTATATTATTAGAAACACACATTAGATTAAAATTA [CACACA_site3286],9.86 ± 0.14
10,TATATATATATGTGCACACCAATTGTATGTAATATA [CACACA_site3889],10.6 ± 0.38
11,TATTTAATTACATGAACACACATTATATATTTTTAA [CACACA_site5615],9.85 ± 0.014
12,ACTACATAATATTAACGTACATATTATAATACTTGC [XGTACX_site954],11.3 ± 0.81
13,ATATAACACATTAGTTGTACTATTTTTAATTGGTGA [XGTACX_site961],11.3 ± 0.88
14,ACATAATAAAAATGACGTACAATTTTTTTTTTTCAT [XGTACX_site8340],11.4 ± 0.91
15,CATTAAAAAGAAAGTTCACACACATATATATGACGG [CACACA_site8836],10.19 ± 0.099
16,TACATAATAACATGTACACACATTCTTCTATAAATG [CACACA_site4061],11.4 ± 0.83
17,ATATATTATATTGAATGTACATATATATATTATATA [XGTACX_site8445],11 ± 0.59
18,GTTAATATCTTGAACAGTACTCTAAATATCTACATA [XGTACX_site5358],10.9 ± 0.51
19,ATGAATAATTAATGATGTACTTAAAAAAAAAAATAT [XGTACX_site6346],11.3 ± 0.72
20,AAAAAAAAAAAAAAAAAAAAAAAAAAAAAAACATAT [GTGCAC_negctrl_site580],11.2 ± 0.67
21,TAGCCCATATGGAATACACACTGAAAATAAAAAAAG [CACACA_site5799],10.3 ± 0.32
22,TTACAATAAATTATAGTGCAATATTTTATTTAATAT,9.9 ± 0.26
23,TGCTATAATTTATATACACACAAATATATACACATA [CACACA_site9356],10.02 ± 0.064

row,Sequence,gcPBM binding intensity (ln)
1,GATAATAATAAACAACCACACACAAAAAAACAAAAA [CACACA_site9074],10.2 ± 0.28
2,ATAAAAAAACACACTCGTACACACATATTTTCTTTC [XGTACX_site6565],11.2 ± 0.59
3,CAATGTTGTACATACACACACACAAAAAAAAAATAA [CACACA_site2407],11.3 ± 0.97
4,TTCAAATTTCCACATACACACCTTGTAGATCTATAT [CACACA_site6270],10.1 ± 0.11
5,ACAACATATGTTATCACACACATATAAATATAAATA [CACACA_site7038],9.99 ± 0.11
6,ATTTTGATGATGTATGCACACATTGAAAATGAGAAA [CACACA_site2916],10.2 ± 0.19
7,ATATATATATATATATGTACATATTTGATTTTTCTT [XGTACX_site8171],11.1 ± 0.79
8,AAATCTTAACTCTATGCACACATAAAAGTATATAAA [CACACA_site8709],10.1 ± 0.19
9,ATGATATACTTGAGTGTGCACAAACTATTACTTACA,10.6 ± 0.33
10,CACACGCACAGACACACACACACACGGATATAAATA [CACACA_site6301],10.5 ± 0.42
11,TTTTTTTTTTTTTTTTGTACATATAAAAATACGTAA [XGTACX_site6003],11 ± 1.1
12,TCACTACATTTTGGACGTACACAACTTGATATATTG [XGTACX_site4775],11.6 ± 0.98
13,ATCGGTAATATTAACACACACATTTATATATATTTA [CACACA_site1084],10.1 ± 0.14
14,TTTTGTAGATATTGAAGTACAAAAAAAATGTAAAAG [XGTACX_site5905],11.5 ± 1.1
15,ATAATAAATATATAATGTACATATTATGTTCTTTAT [XGTACX_site8655],11 ± 0.65
16,CGCTCTTATAAATGTTGTACATAAAACTGTTCATTA [XGTACX_site3409],11.4 ± 0.83
17,TATATATCGCCCTTCACACACACACGGATATAAATA [CACACA_site7221],10.5 ± 0.47
18,AACATATTTATGATGTGTACCTACATAATAGAATTT [XGTACX_site141],11.1 ± 0.71
19,ATGCGTTAATCTATATATATTATGTATAGATTTTCA [CACACA_negctrl_site1650],9.53 ± 0.21
20,TTTTTTAATATATTATTATAAATATTTTTTATGTGT [GTGCAC_negctrl_site712],9.765 ± 0.007
